# PubChem BioAssay AID1745853 (National Center for Advancing Translational Sciences (NCATS), 2022)
# The list shows a part of the results. Shown are side measurements of this screen, not its main read-out; they come without a call.
# Legend:
# Experiment in all cases: Primary Screen for Target Class Profiling of Small Molecule Inhibitors of Methyltransferases
# [1] = target: Glycine N-methyltransferase (Homo sapiens) (UniProt Q14749); details: purified enzyme, MTase-Glo SAH luminescence; measured here: GNMT inhibition; at 40 µM; stronger effect = lower value
# Outline: (§1)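 Each enzyme was reacted with SAM and its substrate, with compounds tested once at 40 uM; SAH formed was read by MTase-Glo luminescence.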
# [2] = target: Guanidinoacetate N-methyltransferase (Homo sapiens) (UniProt Q14353); details: purified enzyme, MTase-Glo SAH luminescence; measured here: GAMT inhibition; at 40 µM; stronger effect = lower value
# Outline: as §1
# [3] = target: Histamine N-methyltransferase (Homo sapiens) (UniProt P50135); details: purified enzyme, MTase-Glo SAH luminescence; measured here: HNMT inhibition; at 40 µM; stronger effect = lower value
# Outline: as §1
# [4] = target: Nicotinamide N-methyltransferase (Homo sapiens) (UniProt P40261); details: purified enzyme, MTase-Glo SAH luminescence; measured here: NNMT inhibition; at 40 µM; stronger effect = lower value
# Outline: as §1
# [5] = target: Phenylethanolamine N-methyltransferase (Homo sapiens) (UniProt P11086); details: purified enzyme, MTase-Glo SAH luminescence; measured here: PNMT inhibition; at 40 µM; stronger effect = lower value
# Outline: as §1
# % is set by controls: 0 for no effect and ±100 for the full control effect.
Compound,"activity change, negative = inhibition [1] [%]","activity change, negative = inhibition [2] [%]","activity change, negative = inhibition [3] [%]","activity change, negative = inhibition [4] [%]","activity change, negative = inhibition [5] [%]"
CCOc1ccc(C(=O)Cn2nc3n(Cc4ccc(C)cc4)c(=O)c4ccccc4n3c2=O)cc1,5.37,0,7.39,2.3,5.86
COc1ccc(OC)c(NC(=O)Cc2cccn2-c2ccc(Cl)cc2)c1,-4.4,-0.552,-1.17,-5.37,-5.12
COc1ccccc1CNC(=O)c1ccc2c(=O)nc3c(-c4ccccc4F)n[nH]n3c2c1,-19.3,-0.176,-2.3,-3.55,-5.25
CCc1cc(C(=O)N2CC[C@@H]3[C@@H](CCC(=O)N3CCN)C2)n(C)n1,-1.41,-3.08,-0.356,-2.86,-2.61
Cc1cccc(N2CCN(C(=O)CCc3nnc4n(CC(C)C)c(=O)c5ccccc5n34)CC2)c1C,-19.4,4.89,1.28,-55.1,-2.57
CCc1cccc(N2C(=O)c3cc(C(=O)OC)nn3CC2(C)C(=O)NC2CCCCCC2)c1 (stereo not given),3.55,0,-3.36,5.61,5.24
CCOC(=O)c1cc2n(n1)CC(C)(C(=O)NC1CCCCC1)N(c1cccc(SC)c1)C2=O (stereo not given),3.7,4.05,-7.67,3.05,3.63
Cc1ccc(C(=O)N2C[C@@H](F)C[C@H]2C(=O)N2CCOCC2)cc1,0.733,4.29,3.25,-4.31,13.8
Cc1ccc(CNc2nc3c(S(=O)(=O)c4ccc(C)cc4)nnn3c3ccccc23)cc1,-7.57,2.36,-1.74,-0.965,-9.83
N=C(N)c1ccccc1,3.35,7.16,-16.4,-13.9,1.37
CCCCCc1ccc(/C=C/C(=O)Nc2cc(Cl)ccc2C(=O)O)cc1,-29.4,-30.9,-9.15,-91,-24.4
CCOC(=O)c1cc2n(n1)CC(C)(C(=O)NCc1ccccc1)N(c1ccc(C(C)C)cc1)C2=O (stereo not given),-0.068,3.51,7.22,2.47,0.615
CCN(Cc1ccncc1)C(=O)C(CO)c1ccccc1 (stereo not given),-0.122,11.5,6.67,-4.28,4.52
O=C(O)Cn1nc(C2CCOCC2)nc1C1CNC(=O)C1 (stereo not given),-2.42,-10,-3.68,-10.4,-9.87
Cc1nc(Nc2ccc(F)cc2)nc(N2CCc3ccccc3C2C)c1C (stereo not given),-2.27,4.83,-1.17,-17.7,1.41
O=C1NCCOCCN(S(=O)(=O)c2ccc3c(c2)CCC3)[C@@H]2CCCC[C@H]12,-0.369,1.68,2.96,-4.6,-7.86
Cc1ccc(N2C(=O)c3cc4ccccc4n3CC2(C)C(=O)NCCC(C)C)c(C)c1 (stereo not given),-3.08,4.78,-2.36,-0.898,-9.9
Cn1c(=O)c2ccc(C(=O)NC3CCCCC3)cc2n2c(SCc3ccccc3Cl)nnc12,3.69,2.7,7.3,14.8,9.92
Nc1nc(SCc2ccc([N+](=O)[O-])cc2)c2ncn([C@@H]3O[C@H](CO)[C@@H](O)[C@H]3O)c2n1,-0.384,8.41,7.83,-10.3,-5.44
CCCN1C(=O)c2ccc(-c3ccco3)n2CC1(C)C(=O)NC1CCCCCC1 (stereo not given),0.044,0,4.27,6.55,1.05
O=C(CCn1ccc2cc(S(=O)(=O)N3CCCC3)ccc21)NCCc1ccccc1,1.93,0,2.25,-0.884,1.8
Cc1cccc(/C=C/c2ccccc2)n1,-22.5,-19,-19.5,-30.8,-22.8
CC1(C(=O)NCc2ccc(Cl)cc2)Cn2c(ccc2-c2ccco2)C(=O)N1C1CC1 (stereo not given),-0.76,3.91,0.146,-2.62,-4.45
COc1ccc(-c2cc3n(n2)CC(C)(C(=O)NCc2ccccc2OC)N(c2cccc(SC)c2)C3=O)cc1 (stereo not given),-3.73,5.54,-3.5,-7.04,-7.16
Cn1c(=O)c2ccc(C(=O)NC3CCCCC3)cc2n2c(=O)n(CC(=O)Nc3cccc(F)c3)nc12,4.5,0,-0.296,0.945,3.85
CN1C[C@H]2CN(Cc3c[nH]c4ccccc34)CCN2C1=O,-3.09,-3.33,-1.08,-1.67,-12.2
Cc1ccc(CN2C(=O)[C@@H]3C[C@@H](O)CN3C3(CN(Cc4ccccc4Cl)C3)C2=O)o1,-4.35,-0.702,-0.813,-5.38,-15.8
CN(CC(=O)N1CCC(CCOc2ccc(F)cc2)C1)S(=O)(=O)c1ccc2c(c1)oc(=O)n2C (stereo not given),-2.12,3.09,-0.812,-36,4.14
